Data: the supplement of paper PMC4967469

Tests used:
Assay in all cases: Viability of human cancer cell lines after 72 h of drug (GDSC screen)
OSI-027 = compound: COc1cccc2cc(-c3nc([C@H]4CC[C@H](C(=O)O)CC4)n4ncnc(N)c34)[nH]c12 [OSI-027]; details: top dose 20 µM
Protocol: (§1)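 Human cancer cell lines in 384-well plates, medium with 10% serum, drug for 72 h over a 256-fold dose range (nine 2-fold or five 4-fold steps up to the top dose). Adherent lines were fixed and stained with the nucleic acid dye Syto60, suspension lines read with resazurin; signal relative to control wells, capped at 0 and 100%. One two-parameter sigmoid per drug and line, fitted in a mixed model over all curves with the slope shared within a line.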

Dimethyloxalylglycine = compound: COC(=O)CNC(=O)C(=O)OC [Dimethyloxalylglycine]; details: top dose 4000 µM; top dose inferred
Protocol: as §1

BMX-IN-1 (QL-XII-61) = compound: C=CC(=O)Nc1cc(-n2c(=O)ccc3cnc4ccc(-c5ccc(NS(C)(=O)=O)cc5)cc4c32)ccc1C [BMX-IN-1 (QL-XII-61)]; details: top dose 10 µM; top dose inferred
Protocol: as §1

Doxorubicin = compound: COc1cccc2c1C(=O)c1c(O)c3c(c(O)c1C2=O)C[C@@](O)(C(=O)CO)C[C@@H]3O[C@H]1C[C@H](N)[C@H](O)[C@H](C)O1 [Doxorubicin]; details: top dose 1.024 µM
Protocol: as §1

BIX02189 = compound: CN(C)Cc1cccc(N=C(c2ccccc2)c2c(O)[nH]c3cc(C(=O)N(C)C)ccc23)c1 [BIX02189]; details: top dose 20 µM; top dose inferred
Protocol: as §1

VX-11e = compound: Cc1cnc(Nc2ccc(F)cc2Cl)nc1-c1c[nH]c(C(=O)N[C@H](CO)c2cccc(Cl)c2)c1 [VX-11e]; details: top dose 5.12 µM; top dose inferred
Protocol: as §1

UNC1215 = compound: O=C(c1ccc(C(=O)N2CCC(N3CCCC3)CC2)c(Nc2ccccc2)c1)N1CCC(N2CCCC2)CC1 [UNC1215]; details: top dose 1 µM; top dose inferred
Protocol: as §1

17-AAG = compound: C=CCNC1=C2C[C@@H](C)C[C@H](OC)[C@H](O)[C@@H](C)/C=C(\C)[C@H](OC(N)=O)[C@@H](OC)/C=C\C=C(/C)C(=O)NC(=CC1=O)C2=O [17-AAG]; details: top dose 1 µM
Protocol: as §1

CCT018159 = compound: CCc1cc(-c2n[nH]c(C)c2-c2ccc3c(c2)OCCO3)c(O)cc1O [CCT018159]; details: top dose 10 µM; top dose inferred
Protocol: as §1

Vismodegib = compound: CS(=O)(=O)c1ccc(C(=O)Nc2ccc(Cl)c(-c3ccccn3)c2)c(Cl)c1 [Vismodegib]; details: top dose 10 µM; top dose inferred
Protocol: as §1

TG101348 = compound: Cc1cnc(Nc2ccc(OCCN3CCCC3)cc2)nc1Nc1cccc(S(=O)(=O)NC(C)(C)C)c1 [TG101348]; details: top dose 10.24 µM
Protocol: as §1

| Cell Line | AUC (OSI-027) | IC50 (OSI-027) [µM] | AUC (Dimethyloxalylglycine) | IC50 (Dimethyloxalylglycine) [µM] | AUC (BMX-IN-1 (QL-XII-61)) | IC50 (BMX-IN-1 (QL-XII-61)) [µM] | AUC (Doxorubicin) | IC50 (Doxorubicin) [µM] | AUC (BIX02189) | IC50 (BIX02189) [µM] | AUC (VX-11e) | IC50 (VX-11e) [µM] | AUC (UNC1215) | IC50 (UNC1215) [µM] | AUC (17-AAG) | IC50 (17-AAG) [µM] | AUC (CCT018159) | IC50 (CCT018159) [µM] | AUC (Vismodegib) | IC50 (Vismodegib) [µM] | AUC (TG101348) | IC50 (TG101348) [µM] |
| --- | --- | --- | --- | --- | --- | --- | --- | --- | --- | --- | --- | --- | --- | --- | --- | --- | --- | --- | --- | --- | --- | --- |
| NCI-H524 (small cell lung carcinoma, suspension) | 0.249 | 0.262 | 0.851 | 2560 | 0.778 | 3.62 | 0.985 | > 1.02 | 0.991 | > 20 | 0.991 | > 5.12 | 0.987 | > 1 | 0.984 | > 1 | 0.977 | > 10 | 0.955 | > 10 | 0.81 | 4.7 |
| NCI-H650 (lung adenocarcinoma, adherent) | 0.426 | 0.767 | 0.802 | 2200 | 0.984 | > 10 | 0.684 | 0.222 | 0.955 | > 20 | 0.96 | > 5.12 | 0.985 | > 1 | 0.656 | 0.178 | 0.867 | > 10 | 0.982 | > 10 | 0.86 | 10 |
| NCI-H720 (lung carcinoid, suspension) | 0.991 | > 20 | 0.958 | > 4000 | 0.991 | > 10 | 0.96 | > 1.02 | 0.992 | > 20 | 0.991 | > 5.12 | 0.991 | > 1 | 0.779 | 0.373 | 0.87 | 7.98 | 0.992 | > 10 | 0.991 | > 10.2 |
| NCI-H810 (large cell lung carcinoma, adherent) | 0.344 | 0.47 | 0.628 | 553 | 0.884 | > 10 | 0.3 | 0.018 | 0.944 | > 20 | 0.962 | > 5.12 | 0.984 | > 1 | 0.935 | > 1 | 0.852 | 7.24 | 0.975 | > 10 | 0.726 | 2.71 |
| NCI-H841 (small cell lung carcinoma, adherent) | 0.463 | 0.993 | 0.565 | 377 | 0.972 | > 10 | 0.87 | 0.955 | 0.977 | > 20 | 0.985 | > 5.12 | 0.987 | > 1 | 0.724 | 0.271 | 0.953 | > 10 | 0.957 | > 10 | 0.932 | > 10.2 |
| NCI-H1155 (large cell lung carcinoma, suspension) | 0.869 | 13.1 | 0.8 | – | 0.993 | > 10 | 0.854 | 0.595 | 0.976 | > 20 | 0.983 | > 5.12 | 0.993 | > 1 | 0.725 | 0.236 | 0.878 | 7.11 | 0.971 | > 10 | 0.952 | > 10.2 |
| NCI-H1304 (small cell lung carcinoma, suspension) | 0.713 | 5.29 | 0.628 | 580 | 0.907 | > 10 | 0.748 | 0.352 | 0.987 | > 20 | 0.961 | > 5.12 | 0.973 | > 1 | 0.963 | > 1 | 0.929 | > 10 | 0.972 | > 10 | 0.87 | > 10.2 |
| NCI-H1395 (lung adenocarcinoma, adherent) | 0.85 | > 20 | 0.921 | > 4000 | 0.979 | > 10 | 0.955 | > 1.02 | 0.949 | > 20 | 0.978 | > 5.12 | 0.98 | > 1 | 0.63 | 0.161 | 0.966 | > 10 | 0.982 | > 10 | 0.763 | 4.89 |
| NCI-H1436 (small cell lung carcinoma, suspension) | 0.682 | 4.36 | 0.725 | 1210 | 0.816 | 6.57 | 0.927 | > 1.02 | 0.985 | > 20 | 0.985 | > 5.12 | 0.944 | > 1 | 0.955 | > 1 | 0.977 | > 10 | 0.984 | > 10 | 0.892 | > 10.2 |
| NCI-H1437 (lung adenocarcinoma, adherent) | 0.457 | 0.951 | 0.37 | 108 | 0.985 | > 10 | 0.512 | 0.069 | 0.983 | > 20 | 0.899 | > 5.12 | 0.981 | > 1 | 0.609 | 0.126 | 0.843 | 7.55 | 0.975 | > 10 | 0.805 | 5.41 |
| NCI-H1563 (lung adenocarcinoma, adherent) | 0.849 | 19.5 | 0.433 | 158 | 0.973 | > 10 | 0.779 | 0.5 | 0.925 | > 20 | 0.958 | > 5.12 | 0.983 | > 1 | 0.798 | 0.58 | 0.985 | > 10 | 0.985 | > 10 | 0.802 | 6.2 |
| NCI-H1568 (lung adenocarcinoma, adherent) | 0.808 | 13.6 | 0.367 | 97.3 | 0.939 | > 10 | 0.537 | 0.0827 | 0.974 | > 20 | 0.976 | > 5.12 | 0.979 | > 1 | 0.9 | > 1 | 0.847 | > 10 | 0.939 | > 10 | 0.891 | > 10.2 |
| NCI-H1623 (lung adenocarcinoma, adherent) | 0.934 | > 20 | 0.385 | 112 | 0.969 | > 10 | 0.8 | 0.625 | 0.974 | > 20 | 0.974 | > 5.12 | 0.983 | > 1 | 0.836 | 0.885 | 0.91 | > 10 | 0.985 | > 10 | 0.976 | > 10.2 |
| NCI-H1648 (lung adenocarcinoma, adherent) | 0.334 | 0.418 | 0.791 | 1920 | 0.949 | > 10 | 0.574 | 0.103 | 0.971 | > 20 | 0.898 | > 5.12 | 0.981 | > 1 | 0.657 | 0.176 | 0.984 | > 10 | 0.973 | > 10 | 0.922 | > 10.2 |
| NCI-H1651 (lung adenocarcinoma, adherent) | 0.948 | > 20 | 0.697 | 937 | 0.984 | > 10 | 0.332 | 0.0209 | 0.983 | > 20 | 0.987 | > 5.12 | 0.969 | > 1 | 0.827 | 0.676 | 0.864 | 9.86 | 0.984 | > 10 | 0.984 | > 10.2 |
| NCI-H1688 (small cell lung carcinoma, adherent) | 0.875 | > 20 | 0.662 | 743 | 0.985 | > 10 | 0.788 | 0.499 | 0.819 | 13 | 0.974 | > 5.12 | 0.983 | > 1 | 0.941 | > 1 | 0.948 | > 10 | 0.986 | > 10 | 0.883 | > 10.2 |
| NCI-H1694 (small cell lung carcinoma, suspension) | 0.459 | 0.967 | 0.529 | 300 | 0.847 | 7.32 | 0.61 | 0.129 | 0.967 | > 20 | 0.977 | > 5.12 | 0.979 | > 1 | 0.98 | > 1 | 0.971 | > 10 | 0.955 | > 10 | 0.849 | 7.64 |
| NCI-H1755 (lung adenocarcinoma, adherent) | 0.853 | 19.6 | 0.759 | 1610 | 0.968 | > 10 | 0.823 | 0.735 | 0.835 | 16.1 | 0.445 | 0.22 | 0.979 | > 1 | 0.538 | 0.0807 | 0.763 | 4.17 | 0.983 | > 10 | 0.453 | 0.465 |
| NCI-H1770 (non-small cell lung carcinoma, suspension) | 0.974 | > 20 | 0.884 | 3390 | 0.86 | 6.76 | 0.611 | 0.124 | 0.988 | > 20 | 0.758 | 1.58 | 0.989 | > 1 | 0.846 | 0.599 | 0.973 | > 10 | 0.992 | > 10 | 0.917 | > 10.2 |
| NCI-H1781 (lung adenocarcinoma, adherent) | 0.989 | > 20 | 0.909 | > 4000 | 0.971 | > 10 | 0.433 | 0.042 | 0.987 | > 20 | 0.911 | > 5.12 | 0.96 | > 1 | 0.805 | 0.505 | 0.95 | > 10 | 0.989 | > 10 | 0.989 | > 10.2 |
| NCI-H1792 (lung adenocarcinoma, adherent) | 0.868 | 15.3 | 0.674 | 725 | 0.988 | > 10 | 0.797 | 0.429 | 0.962 | > 20 | 0.826 | 2.7 | 0.989 | > 1 | 0.552 | 0.0854 | 0.861 | 7.18 | 0.981 | > 10 | 0.863 | 7.44 |
| NCI-H1876 (small cell lung carcinoma, adherent) | 0.249 | 0.235 | 0.739 | 1220 | 0.806 | 5.17 | 0.624 | 0.141 | 0.972 | > 20 | 0.952 | > 5.12 | 0.957 | > 1 | 0.987 | > 1 | 0.98 | > 10 | 0.986 | > 10 | 0.851 | 7.98 |

A lower IC50 marks a more sensitive line; fits outside the tested doses are given as limits. AUC is the area under the same curve over the 256-fold range up to the top dose, as a fraction; values near 1 show little effect. For part of these data: Where the top dose is marked as inferred, it comes from the curve model; the source does not state it.
